Test results: patent US20240101699A1, “MODULATION OF CD46 CELL SURFACE EXPRESSION AND THERAPEUTIC USE THEREOF” (The Regents of the University of California, priority 2021, published 2024)

Legend:
[1] = system: RPMI8226, MM.1S, MM.1R, and INA6 multiple myeloma cells; test: Binding to the surface of multiple myeloma cells
non-tumor BPH1 cells = test: Binding to the surface of non-tumor cells
[2] = system: LnCap-C4-2B, LnCap-C4, DU145, PC3-luc, and Hs27 prostate cancer cells; test: Binding to the surface of prostate cancer cells

B1: YS5FL: human anti-CD46 antibody; VH SEQ ID NO: 86, VL SEQ ID NO: 87; HC SEQ ID NO: 88, LC SEQ ID NO: 89 (antibody)
heavy: QVQLVQSGGGVVQPGRSLRLACAASGLTVNNYAMHWVRQAPGKGLEWVAVISYDGNNKYYADSVKGRFTISRDNSKNTLYLQMNSLRAEDTAVYYCAKGGGYFDLWGRGTLVTVSS[human IgG1 constant region not written out]
light: QSVLTQPPSVSGAPGQRVTISCTGSSSNIGAGYDVHWYQQLPGTAPKLLIYGNNNRPSGVPDRFSGSKSGTSASLAITGLQAEDEADYYCSSYTSGTWLFGGGTKLTVLGQPKAAPSVTLFPPSSEELQANKATLVCLISDFYPGAVTVAWKADSSPVKAGVETTTPSKQSNNKYAASSYLSLTPEQWKSHRSYSCQVTHEGSTVEKTVAPTECS
- specific binding to cell surface [1]: binds specifically
- specific binding to cell surface (non-tumor BPH1 cells): not
- specific binding to cell surface [2]: bind specifically
